# Results: the supplement of paper PMC3334620
# In all, about 33,000 sequences were measured (“E-score (-0.5 to 0.5)”: median about -0.016, highest 2% from about 0.32 on). This is one part of the list.
# Target: T1, Stp1 (UniProt B3LFK1)
# T1 sequence: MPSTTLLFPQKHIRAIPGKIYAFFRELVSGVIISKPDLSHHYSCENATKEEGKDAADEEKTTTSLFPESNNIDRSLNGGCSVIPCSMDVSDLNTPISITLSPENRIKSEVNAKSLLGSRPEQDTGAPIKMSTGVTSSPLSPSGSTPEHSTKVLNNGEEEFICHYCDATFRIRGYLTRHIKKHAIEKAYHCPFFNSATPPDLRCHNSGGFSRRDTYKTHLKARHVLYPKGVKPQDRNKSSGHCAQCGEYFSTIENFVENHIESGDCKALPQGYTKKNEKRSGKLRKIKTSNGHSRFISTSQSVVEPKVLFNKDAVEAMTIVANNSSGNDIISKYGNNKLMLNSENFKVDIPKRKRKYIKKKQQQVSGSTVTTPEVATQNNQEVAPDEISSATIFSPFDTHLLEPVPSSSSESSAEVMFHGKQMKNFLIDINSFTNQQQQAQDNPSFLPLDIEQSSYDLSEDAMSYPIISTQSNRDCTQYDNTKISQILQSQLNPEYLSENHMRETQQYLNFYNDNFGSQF
# Assay: PBM E-score (8-mer binding enrichment) (E-score (-0.5 to 0.5)); higher = stronger / more preferred TF binding; most listed sequences are background and not binding sites
# Details: protein concentration: 200 nM; construct: GST-full length
# Method in brief: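 Full-length yeast transcription factors or their DNA-binding domains, GST-tagged and expressed with PURExpress, were applied at about 100-200 nM to universal all-10-mer Agilent arrays. These arrays had been made double-stranded by primer extension on fresh or once-stripped slides. Detection used fluorescent anti-GST, normalisation used masliner, and E-scores for ungapped eight-base words pooled with reverse complements came from the Universal PBM Analysis Suite.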
row,Sequence,PBM E-score
1,ATGGTCTG,-0.0392
2,ACCCAAAG,-0.107
3,GTGTAGCA,-0.202
4,CCTGCTTC,-0.24
5,CATATGCA,0.0227
6,GTGCAAAC,-0.0949
7,GGAAGGCC,-0.0954
8,CGGGAGCC,0.0161
9,CCTGTCCG,-0.0984
10,CACCCGGG,-0.234
11,CCAGAAAG,0.0349
12,AAGGCAGC,0.239
13,ACATATTG,0.164
14,AGCTTACT,0.0367
15,TACGAAGA,0.0422
16,AGCTTAGA,-0.0573
17,AGGTGATA,-0.0546
18,CGTCAACA,0.0765
19,CAAGAGTG,-0.227
20,CGATGGTC,-0.103
21,ATCAATCG,0.156
22,CCGGGCAC,0.0281
23,AGGCACCC,-0.00944
24,CAGCAACA,0.164
25,TATTTACA,-0.0816

row,Sequence,PBM E-score
1,CTCCCCCC,-0.232
2,ATCGACTG,-0.12
3,AGCTCTTC,-0.131
4,GAAGTCAC,-0.226
5,CTCTCAAG,-0.191
6,ATTGTGCA,0.162
7,CATAATGA,-0.0173
8,GGGCCCGA,-0.0056
9,CCTTGTAG,0.0177
10,ATTCGGAG,-0.0999
11,CGCGGCCG,0.321
12,GTGCTTCA,0.0475
13,ACAGTTCC,-0.00302
14,AAGACAAT,0.172
15,CCTTCTAC,-0.0931
16,AATGTACG,-0.0657
17,AGTATAGA,0.13
18,CGGCGGAC,0.0528
19,GGGAAGCA,-0.192
20,ACACTGGC,-0.0941
21,CGCCAGCC,0.00306
22,ACGCCCCA,0.222
23,CTTCTTGC,0.117
24,CGTTCCAG,-0.176
25,TACAGAGA,-0.145

row,Sequence,PBM E-score
1,GACAAACC,-0.0886
2,CAAAAAAC,0.168
3,ACAATAAG,0.13
4,GCCCATTA,-0.0278
5,ATCTCGGC,-0.0787
6,AATGCCCA,0.119
7,GCAACTGC,0.153
8,CCAGAGAA,-0.0224
9,ACTTGGGG,-0.0517
10,CCTCTCCA,-0.178
11,CAGAATGC,0.0355
12,AGCCGGTC,-0.156
13,ACACTATC,0.00314
14,GACGACTA,-0.148
15,TCACACCA,0.0916
16,GCTGTTTA,0.0828
17,GATCCACA,0.00706
18,AAATTCCG,0.126
19,TGCCGGAA,0.0977
20,AGTGATCC,-0.19
21,TAAACTAA,0.193
22,CGAAGAAA,0.115
23,CATAATTC,0.079
24,ACGAGTCA,-0.168
25,AAATGTAC,0.0049

row,Sequence,PBM E-score
1,GCCCACGC,-0.129
2,CGTCTTCA,-0.036
3,ACGGGTGA,-0.0471
4,ATAGGCTC,-0.0265
5,CCAAGAGC,0.0254
6,CCGAAACG,-0.111
7,CCCCAGTA,-0.265
8,GTCTTAAC,0.0462
9,CAATTTAC,0.125
10,CCGGGAGA,-0.264
11,CCGTGGTC,-0.0212
12,GGAAGCCA,-0.246
13,CCGCACCA,0.237
14,CAGATAGA,-0.14
15,CCGAGCAA,-0.0344
16,GATATGCC,0.068
17,CGAGAACA,-0.0718
18,CGTAGTGC,0.0359
19,CGTGTTGA,-0.0786
20,CTTAACGA,0.0551
21,AGCTATCG,-0.147
22,AGTTCGTG,0.0175
23,CGTTGCTA,-0.0508
24,AGCTCACT,-0.189
25,CCAGCCAA,-0.114

row,Sequence,PBM E-score
1,ACAAAGAG,0.00199
2,CAGTCGGC,0.0617
3,ATCTACGG,0.195
4,CGGATACG,0.144
5,GTCAGGCA,-0.162
6,ACTACATG,-0.0514
7,ATTTCATA,-0.00569
8,CGCGGCAA,0.424
9,CCTCGTAG,0.092
10,GTACTTGA,-0.036
11,ACCTTCTC,-0.251
12,ACCTGCCG,0.0995
13,CCGCTGAG,-0.0707
14,GGGGGGAC,-0.484
15,ACTTGGAC,0.0954
16,AAAAAATC,0.159
17,CAGTGATG,0.0775
18,CAGTCAAG,-0.18
19,GCACCTAC,-0.16
20,TAGACCAA,0.0723
21,GGATCCCA,-0.157
22,CTATGTGA,-0.101
23,CGAACATA,0.0688
24,AGAACACA,0.0195
25,AGGTTAGC,-0.175

row,Sequence,PBM E-score
1,TCAATGAA,0.0662
2,AGACATAG,0.102
3,AGCGGCTA,0.165
4,ATTGCGCC,0.308
5,ACCGACTC,-0.172
6,CGTTCGAC,-0.0707
7,ATGACCCC,-0.255
8,TACCAGAA,0.0702
9,AGAAATGA,0.0622
10,AATAAGTG,0.0724
11,AGCTTCTA,-0.107
12,ACACATCT,-0.0334
13,CCCACTAA,-0.0484
14,AAGGTCGG,-0.217
15,TAAAATGA,0.156
16,CCAGTGGC,-0.0717
17,CTATTACC,-0.0513
18,ACGGGTAC,0.0251
19,AAGTAGAG,-0.12
20,GGGCTGAC,-0.134
21,ATGGGAGG,-0.276
22,CTCAACGA,-0.0461
23,ATGACGCA,-0.0189
24,GCCCGGCA,-0.0116
25,CCCTAGCC,-0.0961

row,Sequence,PBM E-score
1,CTTTAGGC,-0.0119
2,ACGTACAA,-0.0142
3,CGTGGCAC,0.236
4,CCCAGCTC,-0.225
5,GAATCCTC,-0.181
6,CAGAGTCC,-0.0446
7,TGCATGCA,0.134
8,AGCTCGTA,-0.0375
9,ATCGTCTC,-0.0455
10,ACTACTAC,0.0938
11,ATTCAATG,0.192
12,AAATGGCT,0.144
13,AAGGTTAC,-0.0639
14,CTTGTACC,-0.0231
15,GCTTTCCC,-0.0471
16,CGGGTGTA,-0.08
17,TACAGCGA,-0.156
18,CGTGTCAC,0.231
19,GACGACGC,-0.00573
20,ATCGGCCA,-0.0532
21,ACCAGCCA,-0.159
22,CACGTACC,-0.0492
